Reference: the supplement of paper PMC8728848
The list shows a part of the results.

What was measured:
Assay in all cases: glycan array binding signal (z-score within array); higher = stronger binding
Conditions in all cases: glycan notation: IUPAC condensed, linker removed; mutation: R120K
[1] = target: GlcNAc(a1-3)Gal(b1-4)GlcNAc
Summary of the method: (§1)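 The binding signal is a Z-score computed within each array. Data were drawn from 3228 arrays in the Consortium for Functional Glycomics database, restricted to those with a known protein sequence. Scores were averaged over arrays of the same protein sequence at different concentrations or buffers, and over linkers, and negative values can be taken as non-binding.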

[2] = target: GlcNAc(a1-4)Gal(b1-3)GlcNAc
Summary of the method: as §1

[3] = target: GlcNAc(a1-4)Gal(b1-4)GalNAc
Summary of the method: as §1

[4] = target: GlcNAc(a1-4)Gal(b1-4)GlcNAc
Summary of the method: as §1

[5] = target: GlcNAc(a1-4)Gal(b1-4)GlcNAc(b1-3)Gal(b1-4)Glc
Summary of the method: as §1

[6] = target: GlcNAc(a1-4)Gal(b1-4)GlcNAc(b1-3)Gal(b1-4)GlcNAc
Summary of the method: as §1

[7] = target: GlcNAc(a1-4)Gal(b1-4)GlcNAc(b1-3)Gal(b1-4)GlcNAc(b1-3)Gal(b1-4)GlcNAc
Summary of the method: as §1

[8] = target: GlcNAc(a1-4)Gal(b1-4)GlcNAc(b1-3)Gal(b1-4)[Fuc(a1-3)]GlcNAc(b1-3)Gal(b1-4)[Fuc(a1-3)]GlcNAc
Summary of the method: as §1

[9] = target: GlcNAc(a1-6)Gal(b1-4)GlcNAc
Summary of the method: as §1

[10] = target: GlcNAc(b1-2)Gal(b1-3)GalNAc
Summary of the method: as §1

[11] = target: GlcNAc(b1-2)Man(a1-3)[GlcNAc(b1-2)Man(a1-6)]Man(b1-4)GlcNAc(b1-4)GlcNAc
Summary of the method: as §1

[12] = target: GlcNAc(b1-2)Man(a1-3)[GlcNAc(b1-2)Man(a1-6)]Man(b1-4)GlcNAc(b1-4)[Fuc(a1-6)]GlcNAc
Summary of the method: as §1

[13] = target: GlcNAc(b1-2)Man(a1-3)[GlcNAc(b1-4)][GlcNAc(b1-2)Man(a1-6)]Man(b1-4)GlcNAc(b1-4)GlcNAc
Summary of the method: as §1

[14] = target: GlcNAc(b1-2)Man(a1-3)[GlcNAc(b1-4)][GlcNAc(b1-2)Man(a1-6)]Man(b1-4)GlcNAc(b1-4)[Fuc(a1-6)]GlcNAc
Summary of the method: as §1

[15] = target: GlcNAc(b1-2)[GlcNAc(b1-4)]Man(a1-3)[GlcNAc(b1-2)Man(a1-6)]Man(b1-4)GlcNAc(b1-4)GlcNAc
Summary of the method: as §1

[16] = target: GlcNAc(b1-2)[GlcNAc(b1-4)]Man(a1-3)[GlcNAc(b1-4)][GlcNAc(b1-2)Man(a1-6)]Man(b1-4)GlcNAc(b1-4)GlcNAc
Summary of the method: as §1

[17] = target: GlcNAc(b1-2)[GlcNAc(b1-4)]Man(a1-3)[GlcNAc(b1-4)][GlcNAc(b1-2)[GlcNAc(b1-6)]Man(a1-6)]Man(b1-4)GlcNAc(b1-4)GlcNAc
Summary of the method: as §1

[18] = target: GlcNAc(b1-2)[GlcNAc(b1-4)]Man(a1-3)[GlcNAc(b1-4)][GlcNAc(b1-2)[GlcNAc(b1-6)]Man(a1-6)]Man(b1-4)GlcNAc(b1-4)[Fuc(a1-6)]GlcNAc
Summary of the method: as §1

[19] = target: GlcNAc(b1-2)[GlcNAc(b1-6)]Man(a1-6)[GlcNAc(b1-2)Man(a1-3)]Man(b1-4)GlcNAc(b1-4)GlcNAc
Summary of the method: as §1

[20] = target: GlcNAc(b1-2)[GlcNAc(b1-6)]Man(a1-6)[GlcNAc(b1-2)Man(a1-3)]Man(b1-4)GlcNAc(b1-4)[Fuc(a1-6)]GlcNAc
Summary of the method: as §1

[21] = target: GlcNAc(b1-2)[GlcNAc(b1-6)]Man(a1-6)[GlcNAc(b1-4)][GlcNAc(b1-2)Man(a1-3)]Man(b1-4)GlcNAc(b1-4)GlcNAc
Summary of the method: as §1

GlcNAc(b1-3)Fuc = target: GlcNAc(b1-3)Fuc
Summary of the method: as §1

GlcNAc(b1-3)Gal = target: GlcNAc(b1-3)Gal
Summary of the method: as §1

[22] = target: GlcNAc(b1-3)Gal(b1-3)GalNAc
Summary of the method: as §1

GlcNAc(b1-3)Gal(b1-4)Glc = target: GlcNAc(b1-3)Gal(b1-4)Glc
Summary of the method: as §1

[23] = target: GlcNAc(b1-3)Gal(b1-4)GlcNAc
Summary of the method: as §1

[24] = target: GlcNAc(b1-3)Gal(b1-4)GlcNAc(b1-2)Man(a1-3)[GlcNAc(b1-3)Gal(b1-4)GlcNAc(b1-2)Man(a1-6)]Man(b1-4)GlcNAc(b1-4)GlcNAc
Summary of the method: as §1

[25] = target: GlcNAc(b1-3)Gal(b1-4)GlcNAc(b1-2)Man(a1-3)[GlcNAc(b1-3)Gal(b1-4)GlcNAc(b1-2)Man(a1-6)]Man(b1-4)GlcNAc(b1-4)[Fuc(a1-6)]GlcNAc
Summary of the method: as §1

[26] = target: GlcNAc(b1-3)Gal(b1-4)GlcNAc(b1-2)[GlcNAc(b1-3)Gal(b1-4)GlcNAc(b1-6)]Man(a1-6)[GlcNAc(b1-3)Gal(b1-4)GlcNAc(b1-2)Man(a1-3)]Man(b1-4)GlcNAc(b1-4)GlcNAc
Summary of the method: as §1

[27] = target: GlcNAc(b1-3)Gal(b1-4)GlcNAc(b1-3)Gal(b1-4)GlcNAc
Summary of the method: as §1

[28] = target: GlcNAc(b1-3)Gal(b1-4)GlcNAc(b1-3)Gal(b1-4)GlcNAc(b1-2)Man(a1-3)[GlcNAc(b1-3)Gal(b1-4)GlcNAc(b1-3)Gal(b1-4)GlcNAc(b1-2)Man(a1-6)]Man(b1-4)GlcNAc(b1-4)GlcNAc
Summary of the method: as §1

[29] = target: GlcNAc(b1-3)Gal(b1-4)GlcNAc(b1-3)Gal(b1-4)GlcNAc(b1-2)Man(a1-3)[GlcNAc(b1-3)Gal(b1-4)GlcNAc(b1-3)Gal(b1-4)GlcNAc(b1-2)Man(a1-6)]Man(b1-4)GlcNAc(b1-4)[Fuc(a1-6)]GlcNAc
Summary of the method: as §1

[30] = target: GlcNAc(b1-3)Gal(b1-4)GlcNAc(b1-3)Gal(b1-4)GlcNAc(b1-2)[GlcNAc(b1-3)Gal(b1-4)GlcNAc(b1-3)Gal(b1-4)GlcNAc(b1-6)]Man(a1-6)[GlcNAc(b1-3)Gal(b1-4)GlcNAc(b1-3)Gal(b1-4)GlcNAc(b1-2)Man(a1-3)]Man(b1-4)GlcNAc(b1-4)[Fuc(a1-6)]GlcNAc
Summary of the method: as §1

[31] = target: GlcNAc(b1-3)Gal(b1-4)GlcNAc(b1-3)Gal(b1-4)GlcNAc(b1-3)Gal(b1-4)GlcNAc(b1-2)Man(a1-3)[GlcNAc(b1-3)Gal(b1-4)GlcNAc(b1-3)Gal(b1-4)GlcNAc(b1-3)Gal(b1-4)GlcNAc(b1-2)Man(a1-6)]Man(b1-4)GlcNAc(b1-4)GlcNAc
Summary of the method: as §1

[32] = target: GlcNAc(b1-3)Gal(b1-4)GlcNAc(b1-3)Gal(b1-4)GlcNAc(b1-3)Gal(b1-4)GlcNAc(b1-2)Man(a1-3)[GlcNAc(b1-3)Gal(b1-4)GlcNAc(b1-3)Gal(b1-4)GlcNAc(b1-3)Gal(b1-4)GlcNAc(b1-2)Man(a1-6)]Man(b1-4)GlcNAc(b1-4)[Fuc(a1-6)]GlcNAc
Summary of the method: as §1

[33] = target: GlcNAc(b1-3)Gal(b1-4)GlcNAc(b1-3)Gal(b1-4)GlcNAc(b1-3)Gal(b1-4)GlcNAc(b1-2)[GlcNAc(b1-3)Gal(b1-4)GlcNAc(b1-3)Gal(b1-4)GlcNAc(b1-3)Gal(b1-4)GlcNAc(b1-6)]Man(a1-6)[GlcNAc(b1-3)Gal(b1-4)GlcNAc(b1-3)Gal(b1-4)GlcNAc(b1-3)Gal(b1-4)GlcNAc(b1-2)Man(a1-3)]Man(b1-4)GlcNAc(b1-4)[Fuc(a1-6)]GlcNAc
Summary of the method: as §1

[34] = target: GlcNAc(b1-3)Gal(b1-4)GlcNAc(b1-3)Gal(b1-4)GlcNAc(b1-3)Gal(b1-4)GlcNAc(b1-3)Gal(b1-4)GlcNAc(b1-2)Man(a1-3)[GlcNAc(b1-3)Gal(b1-4)GlcNAc(b1-3)Gal(b1-4)GlcNAc(b1-3)Gal(b1-4)GlcNAc(b1-3)Gal(b1-4)GlcNAc(b1-2)Man(a1-6)]Man(b1-4)GlcNAc(b1-4)GlcNAc
Summary of the method: as §1

[35] = target: GlcNAc(b1-3)Gal(b1-4)GlcNAc(b1-3)Gal(b1-4)GlcNAc(b1-3)Gal(b1-4)GlcNAc(b1-3)Gal(b1-4)GlcNAc(b1-2)Man(a1-3)[GlcNAc(b1-3)Gal(b1-4)GlcNAc(b1-3)Gal(b1-4)GlcNAc(b1-3)Gal(b1-4)GlcNAc(b1-3)Gal(b1-4)GlcNAc(b1-2)Man(a1-6)]Man(b1-4)GlcNAc(b1-4)[Fuc(a1-6)]GlcNAc
Summary of the method: as §1

B1: Siglec-9 (Homo sapiens), Q9Y336 (protein)
chain: MLLLLLPLLWGRERAEGQTSKLLTMQSSVTVQEGLCVHVPCSFSYPSHGWIYPGPVVHGYWFREGANTDQDAPVATNNPARAVWEETRDRFHLLGDPHTKNCTLSIRDARRSDAGRYFFKMEKGSIKWNYKHHRLSVNVTALTHRPNILIPGTLESGCPQNLTCSVPWACEQGTPPMISWIGTSVSPLDPSTTRSSVLTLIPQPQDHGTSLTCQVTFPGASVTTNKTVHLNVSYPPQNLTMTVFQGDGTVSTVLGNGSSLSLPEGQSLRLVCAVDAVDSNPPARLSLSWRGLTLCPSQPSNPGVLELPWVHLRDAAEFTCRAQNPLGSQQVYLNVSLQSKATSGVTQGVVGGAGATALVFLSFCVIFVVVRSCRKKSARPAAGVGDTGIEDANAVRGSASQGPLTEPWAEDSPPDQPPPASARSSVGEGELQYASLSFQMVKPWDSRGQEATDTEYSEIKIHR
- glycan array binding signal (z-score) [1]: -0.474
- glycan array binding signal (z-score) [2]: -0.505
- glycan array binding signal (z-score) [3]: -0.511
- glycan array binding signal (z-score) [4]: -0.366
- glycan array binding signal (z-score) [5]: -0.466
- glycan array binding signal (z-score) [6]: -0.374
- glycan array binding signal (z-score) [7]: -0.535
- glycan array binding signal (z-score) [8]: 0.551
- glycan array binding signal (z-score) [9]: -0.661
- glycan array binding signal (z-score) [10]: -0.283
- glycan array binding signal (z-score) [11]: -0.141
- glycan array binding signal (z-score) [12]: -0.036
- glycan array binding signal (z-score) [13]: 0.622
- glycan array binding signal (z-score) [14]: -0.232
- glycan array binding signal (z-score) [15]: -0.081
- glycan array binding signal (z-score) [16]: 8.32
- glycan array binding signal (z-score) [17]: -0.189
- glycan array binding signal (z-score) [18]: -0.415
- glycan array binding signal (z-score) [19]: -0.232
- glycan array binding signal (z-score) [20]: -0.377
- glycan array binding signal (z-score) [21]: -0.476
- glycan array binding signal (z-score) (GlcNAc(b1-3)Fuc): -0.166
- glycan array binding signal (z-score) (GlcNAc(b1-3)Gal): -0.602
- glycan array binding signal (z-score) [22]: -0.423
- glycan array binding signal (z-score) (GlcNAc(b1-3)Gal(b1-4)Glc): -0.244
- glycan array binding signal (z-score) [23]: -0.447
- glycan array binding signal (z-score) [24]: -0.454
- glycan array binding signal (z-score) [25]: 0.432
- glycan array binding signal (z-score) [26]: -0.559
- glycan array binding signal (z-score) [27]: -0.425
- glycan array binding signal (z-score) [28]: -0.201
- glycan array binding signal (z-score) [29]: 0.152
- glycan array binding signal (z-score) [30]: 0.062
- glycan array binding signal (z-score) [31]: -0.39
- glycan array binding signal (z-score) [32]: -0.214
- glycan array binding signal (z-score) [33]: 0.565
- glycan array binding signal (z-score) [34]: -0.16
- glycan array binding signal (z-score) [35]: -0.305
